# According to a collection of fitness landscapes (doi:10.1126/science.1257360):
# This is one part of the list.
# B1: PhoQ; a variant is named by its letters at X, in order, P23837 (parent)
# chain: MKKLLRLFFPLSLRVRFLLATAAVVLVLSLAYGMVALIGYSVSFDKTTFRLLRGESNLFYTLAKWENNKLHVELPENIDKQSPTMTLIYDENGQLLWAQRDVPWLMKMIQPDWLKSNGFHEIEADVNDTSLLLSGDHSIQQQLQEVREDDDDAEMTHSVAVNVYPATSRMPKLTIVVVDTIPVELKSSYMVWSWFIYVLSANLLLVIPLLWVAAWWSLRPIEALAKEVRELEEHNRELLNPATTRELTSLVRNLNRLLKSERERYDKYRTTLTDLTHSLKTPLXXLQXXLRSLRSEKMSVSDAEPVMLEQISRISQQIGYYLHRASMRGGTLLSRELHPVAPLLDNLTSALNKVYQRKGVNISLDISPEISFVGEQNDFVEVMGNVLDNACKYCLEFVEISARQTDEHLYIVVEDDGPGIPLSKREVIFDRGQRVDTLRPGQGVGLAVAREITEQYEGKIVAGESMLGGARMEVIFGRQHSAPKDE
# Variants of: B1
# Experiment: enrichment ratio after two sorts for PhoP signalling (ratio (wild type AVST 3.29)); higher = more functional
# Conditions: with PhoP (E. coli)
row,Variant,enrichment ratio
1,RGQE,≤ 0.25
2,IDKL,≤ 0.25
3,RSMW,≤ 0.25
4,GERI,≤ 0.25
5,ELGK,≤ 0.25
6,LVND,≤ 0.25
7,AISQ,15.6
8,ENQP,≤ 0.25
9,NTTV,≤ 0.25
10,MSIF,≤ 0.25
11,FFDG,≤ 0.25
12,RYTI,≤ 0.25
13,SNFE,≤ 0.25
14,VTKV,≤ 0.25
15,EPVD,≤ 0.25
16,PMMR,≤ 0.25
17,AHIS,≤ 0.25
18,SYLF,≤ 0.25
19,LLFE,≤ 0.25
20,KARV,≤ 0.25
21,HYRM,≤ 0.25
22,YQIW,≤ 0.25
23,WHHC,≤ 0.25
24,YLWK,≤ 0.25
25,MDVY,≤ 0.25
26,KYPG,≤ 0.25

row,Variant,enrichment ratio
1,DTNH,≤ 0.25
2,GIGA,≤ 0.25
3,TMPI,≤ 0.25
4,AEDA,≤ 0.25
5,MWWH,≤ 0.25
6,PWYS,≤ 0.25
7,AKVW,≤ 0.25
8,RATI,≤ 0.25
9,DNHY,≤ 0.25
10,WAEK,≤ 0.25
11,VNRK,≤ 0.25
12,QYIL,≤ 0.25
13,MSQM,≤ 0.25
14,VWPT,≤ 0.25
15,RDQD,≤ 0.25
16,TVAD,≤ 0.25
17,YDSQ,≤ 0.25
18,LAGC,≤ 0.25
19,KDRL,≤ 0.25
20,TDWE,≤ 0.25
21,RFGD,≤ 0.25
22,NGVP,0.475
23,DWIL,≤ 0.25
24,IPPA,≤ 0.25
25,ISGY,≤ 0.25
26,DDRV,≤ 0.25

row,Variant,enrichment ratio
1,DATH,≤ 0.25
2,PCDP,≤ 0.25
3,LFAD,≤ 0.25
4,LIFA,≤ 0.25
5,SPGR,≤ 0.25
6,FPVL,≤ 0.25
7,YTAY,≤ 0.25
8,LEQV,≤ 0.25
9,LWLA,≤ 0.25
10,GLWP,≤ 0.25
11,GYRR,≤ 0.25
12,LYVR,≤ 0.25
13,CLSY,≤ 0.25
14,IQMK,≤ 0.25
15,RMME,≤ 0.25
16,PNYE,≤ 0.25
17,AQMN,38.4
18,RADS,≤ 0.25
19,DQHH,≤ 0.25
20,LFCQ,≤ 0.25
21,ISHL,≤ 0.25
22,YNIH,≤ 0.25
23,SLIA,≤ 0.25
24,TSES,2.55
25,TREG,≤ 0.25
26,HLAA,≤ 0.25

row,Variant,enrichment ratio
1,FFVD,≤ 0.25
2,TNDI,≤ 0.25
3,SDRS,≤ 0.25
4,FPAP,≤ 0.25
5,QHEG,≤ 0.25
6,FMEC,≤ 0.25
7,NAVR,≤ 0.25
8,WLLG,≤ 0.25
9,PPCI,≤ 0.25
10,NHHK,≤ 0.25
11,ESSF,≤ 0.25
12,PNQA,≤ 0.25
13,NHHI,≤ 0.25
14,QEDV,2.52
15,MTSS,≤ 0.25
16,QCKG,≤ 0.25
17,NSKS,≤ 0.25
18,VCPR,≤ 0.25
19,THTN,4.21
20,GFYF,≤ 0.25
21,EGPP,≤ 0.25
22,HEDG,≤ 0.25
23,FGLT,9.94
24,EQLH,≤ 0.25
25,SQLS,7.34
26,SFVP,≤ 0.25

row,Variant,enrichment ratio
1,HDPH,≤ 0.25
2,IGQP,≤ 0.25
3,MFMH,≤ 0.25
4,YLHA,≤ 0.25
5,TQTE,26.4
6,YHHG,≤ 0.25
7,ICIY,≤ 0.25
8,NDHH,≤ 0.25
9,EQRH,≤ 0.25
10,TCNT,7.62
11,NNMG,≤ 0.25
12,EEEI,≤ 0.25
13,EFAP,≤ 0.25
14,SNIY,≤ 0.25
15,YMEW,≤ 0.25
16,YTVF,0.29
17,YQLW,≤ 0.25
18,FYVW,≤ 0.25
19,ISKQ,≤ 0.25
20,DERY,≤ 0.25
21,AQVD,≤ 0.25
22,SQKW,≤ 0.25
23,KDMW,≤ 0.25
24,ASEY,≤ 0.25
25,AILE,2.65
26,RILA,≤ 0.25

row,Variant,enrichment ratio
1,RASL,≤ 0.25
2,HFNW,2.78
3,LTAD,≤ 0.25
4,PSRY,≤ 0.25
5,MFVD,≤ 0.25
6,ANGF,3.69
7,FLQN,≤ 0.25
8,YGVH,≤ 0.25
9,YSAV,≤ 0.25
10,RAYG,≤ 0.25
11,SRRN,≤ 0.25
12,GEWM,≤ 0.25
13,NTHR,≤ 0.25
14,VADT,≤ 0.25
15,LNGH,≤ 0.25
16,LHDE,≤ 0.25
17,IHTG,≤ 0.25
18,AASH,5.17
19,GFTS,≤ 0.25
20,ICTI,≤ 0.25
21,GERT,≤ 0.25
22,ERGI,≤ 0.25
23,MEHH,7.43
